Results: PubChem BioAssay AID493208 (National Center for Advancing Translational Sciences (NCATS), 2011)
The campaign covered roughly 44,000 compounds. About 340 (0.77%) were called active. Inconclusive results (about 5%) are left out. Calls follow the shape of the dose curve; as a rule, active = well fitted inhibition curve with a large enough effect; inconclusive = small, poorly fitted or top-dose-only effect; inactive = flat fitted curve, though single readings scatter. The list shows a part of the results.

Assay: Acumen qHTS Assay for Inhibitors of the mTORC1 Signaling Pathway in MEF (Tsc2-/-, p53-/-) Cells: Sytravon;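 also: plate controls were DMSO for no effect and rapamycin for full effect; nearly all actives have a fitted effect of over 50% in size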
Conditions: phospho-rpS6 immunofluorescence/PI, 24 h; series mostly up to 38.3 µM; activity change, negative = inhibition: at the top concentration
Summary of the method: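 Compounds act on Tsc2-/-, p53-/- fibroblasts carrying an empty vector for 24 h before fixation and dual staining for phospho-S6 and DNA (propidium iodide). Values are percentages of cells above a rapamycin-defined pS6/PI threshold.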

Activity change, negative = inhibition, inactive:
COc1ccc(N2CCN(S(=O)(=O)CCNC(=O)c3ccc(C(F)(F)F)cc3)CC2)cc1 0.011%, CCCCCn1c(=O)[nH]c2cc(C(=O)NCc3ccc(OC)cc3)ccc2c1=O -6.42%, CCOC(=O)c1ccc(NC(=O)CCS(=O)(=O)c2ccc3c(c2)oc(=O)n3C)cc1 7.05%, COc1ccccc1N(CC(=O)Nc1ccccc1F)S(C)(=O)=O -9.52%, CCCCN(CCCC)CCNC(=O)CN1C(=O)CSc2ccc(S(=O)(=O)N3CCCCC3)cc21 -0.856%, Cc1cccc(CN2C(=O)CC(c3ccc(Cl)cc3)c3c(C)nn(-c4nc(C)cc(C)n4)c32)c1 (stereo unspecified) -3.5%, COc1ccc(C2NC(=O)c3c(sc4c3CCN(C)C4)N2)cc1O (stereo unspecified) 1.46%, CCCNc1nc(NCc2ccccc2OC)c2cnn(C)c2n1 0%, CCN(CCCNC(=O)c1cc2c(=O)[nH]c3ccc(C)cc3c2s1)c1ccc(C)cc1 1.3%, CCc1ccc(NC(=O)C(CC)n2nnc(C(=O)OC)c2C(=O)OC)cc1 (stereo unspecified) 7.76%, Cc1ccc(Cl)cc1N1CCN(S(=O)(=O)c2ccc3[nH]c4c(c3c2)CCCC4)CC1 -1.96%, COc1ccccc1NC(=O)CN1C(=O)c2cccc3cccc1c23 -0.811%, Cc1cccc(N2CCN(C(=O)C3CCN(S(=O)(=O)c4cn(C)cn4)CC3)CC2)c1C 2.81%, Cc1ccc(Cl)cc1Nc1nn2c(=O)c3ccc(C(=O)NCc4cccs4)cc3nc2s1 -1.19%, COc1ccccc1NC(=O)C1CCN(S(=O)(=O)c2ccc3c(c2)oc(=O)n3C)CC1 4.1%, CCCN1C(=O)c2ccccc2CC1(C)C(=O)NC1CCCCC1 (stereo unspecified) 0.413%, Cc1ccc(NC(=O)N2CCN(c3nnc(C)c4c(C)n(-c5ccccc5)nc34)CC2)cc1Cl -8.99%, CCC(CO)Nc1ncnc2c1cnn2-c1ccc(C)cc1 (stereo unspecified) 9.68%, CCOc1ccccc1CNC(=O)c1cnc2sc(N3CCCC3)nn2c1=O 4.27%, CCOCCCn1c(SCC(=O)Nc2cccc(OC)c2)nc2ccccc2c1=O 4.21%, O=C(NCc1ccc2c(c1)OCO2)c1ccc2c(c1)N(Cc1ccc(F)cc1)C(=O)c1ccccc1S2=O (stereo unspecified) -1.05%, Cc1ccc2nc(N(Cc3cccnc3)C(=O)c3ccc4c(c3)OCCO4)sc2c1 2.86%, CCN(c1ccc(Cl)cc1)S(=O)(=O)c1nnc(NC(=O)C2CCCCC2)s1 -0.6%, CCOCCc1nn2c(=O)cc(COC(=O)c3cccs3)nc2s1 -2.58%, Cc1cc(C)cc(-n2c(SCC(=O)NCC3CCCO3)nc3c([nH]c4ccccc43)c2=O)c1 (stereo unspecified) -5.65%, COc1ccc2c(c1)-c1nc(NC(=O)c3ccc(C)cc3)sc1CC2 -19.9%, CCCC(=O)C1=C(c2ccc(C)c(C)c2)N(C(=O)CCC)n2c(CC)nnc2S1 -2.09%, CC1CCN(C(=O)c2cc(-c3cccc(Cl)c3)on2)CC1 -2.16%, COc1ccc(-c2noc(-c3ccc(NCCc4ccccc4)c([N+](=O)[O-])c3)n2)cc1OC 2.94%, O=C(Cn1ncc2c3ccccc3n(Cc3ccccc3)c2c1=O)Nc1ccccc1C(F)(F)F -4.37%, COc1ccc(OC)c(CNC(=O)CCCn2nc(C)c3c(C)n(-c4ccc(C)cc4)nc3c2=O)c1 0.205%, CC(C)c1ccc(NS(=O)(=O)c2ccc3[nH]cc(C(=O)N4CCCC4)c(=O)c3c2)cc1 -0.0537%, CCn1ccc2cc(S(=O)(=O)N3CCCN(C(=O)Nc4cc(Cl)ccc4C)CC3)ccc21 -2.96%, CCOc1ccc(NC(=O)Nc2ccc3snnc3c2)cc1 -4.11%, COc1cccc(CNC(=O)Cc2c(C)c3c(cc(C)c4c(C)coc43)oc2=O)c1 1.95%, Cn1ccc2c(OCC(=O)NCc3ccccc3Cl)cccc2c1=O -5.28%, CC(=O)N1CCC2(CC1)OC(=O)C(C)=C2C(=O)NCc1ccc(Cl)cc1 0.212%, CCc1ccc(CNC(=O)c2ccc3nc(C(C)C)oc3c2)cc1 -1.5%, Cc1nn(-c2nc(-c3ccc(F)cc3)cc(C(F)(F)F)n2)c(C)c1Cl -4.76%, COc1ccc(OC(C)c2nc3ccccc3[nH]2)cc1 (stereo unspecified) -13%, O=C(Nc1ccc2oc(-c3cccnc3)nc2c1)c1ccc(-c2ccccc2)o1 -17.4%, COC(=O)c1ccc(Cl)cc1NC(=O)N(C)CCc1c(C)nn(C)c1C 14.4%, CCOc1ccc(NC(=O)C(=O)NCCc2csc3nc(-c4ccccc4F)nn23)cc1 -13.8%, Cc1ccc(CN2CCN(C3CCN(S(=O)(=O)c4ccc(C)cc4)CC3)C(=O)C2=O)cc1 -7.92%, COc1cc(NC(=O)C(CC(C)C)NS(=O)(=O)c2ccc3c(c2)oc(=O)n3C)c(C(=O)O)cc1OC (stereo unspecified) -6.92%, CCOC(=O)c1ccc(NC(=O)c2csc3c2CCCCC3)cc1 1.73%, CCOc1ccc(NC(=O)Cn2cc(C(=O)c3ccc(C)c(C)c3)c(=O)c3cc(OC)c(OC)cc32)cc1 -8.23%, COc1ccc(CCn2c3c(c(=O)[nH]c2=O)C(NC(=O)c2ccccc2OC)(C(F)(F)F)C(=O)N3)cc1OC (stereo unspecified) -0.477%, COc1cc(C(=O)Nc2ccc(NC(=O)c3ccc(Br)cc3)cc2)cc(OC)c1OC -2.59%, CCC1CCCCN1C(=O)CSc1nc2c([nH]c3ccccc32)c(=O)n1-c1cccc(OC)c1 (stereo unspecified) -8.87%, Cc1ccc(-n2ccnc(NCCc3ccc(S(N)(=O)=O)cc3)c2=O)cc1C 0%, Cc1oc(-c2cccc(Cl)c2)nc1CSc1nc2ncccc2[nH]1 1.3%, O=C(COc1ccccc1Cl)Nc1ccc(Cl)c(-c2nc3ccccc3o2)c1 1.55%, O=C(O)c1ccc2nc(-c3cc4cc(F)ccc4oc3=O)[nH]c2c1 -0.484%, Cc1cccc(N2CCN(C(=O)c3cc4c(=O)n(C)c5ccccc5c4s3)CC2)c1C -2.4%, COc1ccccc1N1CCN(C(=O)c2cn(C)c3ccc(S(=O)(=O)N(C)C4CCCCC4)cc3c2=O)CC1 1.26%, CCOc1ccc(NC(=O)c2cnn(-c3ccc(C)c(C)c3)c2C2CCN(C(=O)OC(C)(C)C)CC2)cc1 0.869%, CCOc1ccc(Nc2nc3c(S(=O)(=O)c4cccc(Cl)c4)nnn3c3ccsc23)cc1 -14.4%, CC1=C(C(=O)Nc2ccccc2)C(c2ccc(C(=O)O)cc2)n2ncnc2N1 (stereo unspecified) -6.81%, CCc1ccc(OCC(=O)N(Cc2ccco2)Cc2ccccc2Cl)cc1 -2.44%, CCOC(=O)c1cnc2c(ccc3ccccc32)c1Nc1cccc(C(F)(F)F)c1 -8.33%, Cc1ccc(NC(=O)CCCn2c(=O)c3cccn3c3ccccc32)c(C)c1 -4.03%, Cc1ccc(C(=O)NCC(c2ccc3c(c2)OCO3)N2CCN(C)CC2)cc1C (stereo unspecified) -8.35%, CCc1noc(-c2ccc(NCc3ccccc3)c([N+](=O)[O-])c2)n1 1.41%, N=c1c(C(=O)NCC2CCCO2)cc2c(=O)n3ccccc3nc2n1CCCO (stereo unspecified) -13.6%, COc1ccc(Cn2c(C(=O)O)c(CNCCc3ccco3)c3ccc(C)cc32)cc1 -6.26%, COc1ccc(F)cc1S(=O)(=O)NCC(c1ccco1)S(=O)(=O)c1ccc(F)cc1 (stereo unspecified) -4.51%, CCOc1cc(C(=O)NCCc2csc3nc(-c4ccccc4F)nn23)cc(OCC)c1OCC 5.31%, Cc1ccccc1OCC(=O)Nc1ccccc1C(=O)OCc1cc(=O)n2ccsc2n1 -14%, Cc1cc(C(F)F)n2nc(C(=O)Nc3cccc(Cl)c3C)nc2n1 7.09%, COc1ccc2c(c1)c1c(c(=O)n(-c3ccccc3)c(=O)n1CC(=O)NCCC1=CCCCC1)n2C -0.18%, Cn1ncc2c(NCc3ccccc3Cl)nc(NCCO)nc21 5.94%, O=C(Nc1ccc(-n2nncc2-c2ccccc2)cc1)c1cccc(F)c1 -25.1%, O=C(CN1C(=O)CCn2nc(-c3ccccc3)cc21)NCc1ccc(F)cc1 3.93%, CCOc1ccc(CNC(=O)C2CCN(S(=O)(=O)c3cn(C)cn3)CC2)cc1 0%, Cc1cc(C)cc(NC(=O)Cn2c(=O)n(-c3cc(C)cc(C)c3)c(=O)c3oc4ccccc4c32)c1 -0.168%, Cc1nc2ccccc2n2c(-c3ccccc3)c3c(=O)n(C)c(=O)n(C)c3c12 3.48%, Cc1ccccc1N(C)S(=O)(=O)c1nnc(NC(=O)c2ccccc2F)s1 -7.62%, COc1ccc(-n2ccnc2SCC(=O)Nc2nnc(C)s2)cc1 -7.15%, Cc1ccc(NC(=O)C(=O)NCCc2sc(-c3ccc(Cl)cc3)nc2C)cc1C -8.43%, COc1cccc(Cn2c(CNC(=O)CCc3ccccc3)nc3cccnc32)c1 0.4%, Cc1ccc(S(=O)(=O)NCCc2csc(-c3ccc(Cl)cc3)n2)cc1 -9.71%, Cc1c(Cl)cccc1NC(=O)CCS(=O)(=O)c1ccc2c(c1)oc(=O)n2C 5.25%, COc1cccc(CNC(=O)CCn2nc(C)c3c(C)n(-c4ccccc4)nc3c2=O)c1 1%, CN(c1ccccc1)S(=O)(=O)c1nnc(NC(=O)C2CCCCC2)s1 -2.41%, COc1cccc(C(=O)N(Cc2cccnc2)c2nc3c(OC)ccc(C)c3s2)c1OC -3.07%, CCOC(=O)c1c(C)c(C(=O)NCc2ccc(OC)cc2)c(C)n1CC -4.74%, COc1ccc(NCc2cc3cc4c(cc3n(CC(=O)Nc3ccc(F)cc3)c2=O)OCCO4)cc1 0.0523%, O=C(CSc1nc2ccccc2nc1Cc1ccc(Cl)cc1)N1CCCc2ccccc21 -0.567%, COC(=O)C(C)Sc1nc2c(cnn2-c2ccc(F)cc2)c(=O)[nH]1 (stereo unspecified) 8.77%, CCOc1cc(C2CC(=O)Nc3cc4c(cc32)OCCO4)ccc1O (stereo unspecified) -1.48%, Cc1ccc(OCCn2c(CCNC(=O)C3CCCCC3)nc3ccccc32)cc1 -2.14%, COc1cccc(C(=O)NCc2cn3ccccc3n2)c1 -0.988%, CCOc1ccc(C(=O)c2cn(CC(=O)Nc3ccc(F)cc3)c3cc4c(cc3c2=O)OCCO4)cc1 5.57%, O=C(CSc1nnc(-c2ccccc2)c(-c2ccccc2)n1)NC1CCCC1 7.59%, CCOc1ccc(OCC)c(NS(=O)(=O)c2c(C(=O)N3CCCCCC3)c(C)n(C)c2C)c1 2.16%
